Test results reported in patent US11178870B2 (priority 2017, dated 2021).

Experiments:
[1] = tested on: Colletotrichum orbiculare; conditions: 250 ppm sprayed (2.5 ml/pot) before inoculation; assessed 6 to 10 days after inoculation
Phytophthora infestans = type: in vivo; conditions: Table 7, Test F
Magnaporthe grisea = type: in vivo; conditions: Table 7, Test A

Structure (SMILES) | control value, Test H (anthracnose on cucumber) [1] | control value, Test F (late blight on tomato) (Phytophthora infestans) | control value, Test A (blast on rice) (Magnaporthe grisea)
Cc1cnn(-c2ccc(=O)n(CC(F)F)c2-c2ccccc2C)c1 [Compound 303] | L (L shows the control value of 50% or less) | L (L shows the control value of 50% or less) | L (L shows the control value of 50% or less)
Cc1cnn(-c2cc(Br)c(=O)n(CC(F)F)c2-c2ccccc2C)c1 [Compound 304] | L (L shows the control value of 50% or less) | L (L shows the control value of 50% or less) | L (L shows the control value of 50% or less)
Cc1cnn(-c2ccc(=O)n(CC(F)F)c2-c2ccccc2F)c1 [Compound 305] | L (L shows the control value of 50% or less) | L (L shows the control value of 50% or less) | L (L shows the control value of 50% or less)
Cc1ccccc1-c1c(-n2ncc(C)c2Cl)cc(Cl)c(=O)n1CC(F)F [Compound 306] | H (H shows the control value more than 50%) | L (L shows the control value of 50% or less) | H (H shows the control value more than 50%)
Cc1ccccc1-c1c(-n2ncc(C)c2Cl)cc(Br)c(=O)n1CC(F)F [Compound 307] | H (H shows the control value more than 50%) | L (L shows the control value of 50% or less) | H (H shows the control value more than 50%)
CCn1c(-c2c(F)cc(OC)cc2F)c(-n2cc(F)cn2)ccc1=O [Compound 308] | H (H shows the control value more than 50%) | L (L shows the control value of 50% or less) | H (H shows the control value more than 50%)
Cc1cnn(-c2cc(Br)c(=O)n(CC(F)F)c2-c2ccccc2F)c1 [Compound 309] | L (L shows the control value of 50% or less) | L (L shows the control value of 50% or less) | H (H shows the control value more than 50%)
Cc1cnn(-c2cc(Cl)c(=O)n(CC(F)F)c2-c2ccccc2F)c1Cl [Compound 310] | H (H shows the control value more than 50%) | L (L shows the control value of 50% or less) | H (H shows the control value more than 50%)
CCOc1cc(F)c(-c2c(-n3cc(F)cn3)ccc(=O)n2CC)c(F)c1 [Compound 311] | H (H shows the control value more than 50%) | L (L shows the control value of 50% or less) | H (H shows the control value more than 50%)
Cc1cnn(-c2cc(Br)c(=O)n(CC(F)F)c2-c2ccccc2F)c1Cl [Compound 312] | H (H shows the control value more than 50%) | L (L shows the control value of 50% or less) | H (H shows the control value more than 50%)
CCn1c(-c2ccccc2Cl)c(-n2cc(F)cn2)cc(Br)c1=O [Compound 313] | H (H shows the control value more than 50%) | L (L shows the control value of 50% or less) | H (H shows the control value more than 50%)
CCn1c(-c2c(F)cc(OC)cc2F)c(-n2cc(F)cn2)cc(Cl)c1=O [Compound 314] | H (H shows the control value more than 50%) | L (L shows the control value of 50% or less) | H (H shows the control value more than 50%)
CCn1c(-c2c(F)cc(OC)cc2F)c(-n2cc(F)cn2)cc(Br)c1=O [Compound 315] | H (H shows the control value more than 50%) | L (L shows the control value of 50% or less) | H (H shows the control value more than 50%)
CCOc1cc(F)c(-c2c(-n3cc(F)cn3)cc(Cl)c(=O)n2CC)c(F)c1 [Compound 316] | H (H shows the control value more than 50%) | L (L shows the control value of 50% or less) | H (H shows the control value more than 50%)
CCOc1cc(F)c(-c2c(-n3cc(F)cn3)cc(Br)c(=O)n2CC)c(F)c1 [Compound 317] | H (H shows the control value more than 50%) | L (L shows the control value of 50% or less) | L (L shows the control value of 50% or less)
CCn1c(-c2c(F)cccc2F)c(-n2cc(F)cn2)ccc1=O [Compound 318] | H (H shows the control value more than 50%) | H (H shows the control value more than 50%) | L (L shows the control value of 50% or less)

Structure (SMILES) | control value, Test H (anthracnose on cucumber) [1] | control value, Test F (late blight on tomato) (Phytophthora infestans) | control value, Test A (blast on rice) (Magnaporthe grisea)
CCn1c(-c2c(F)cccc2F)c(-n2cc(F)cn2)cc(Cl)c1=O [Compound 319] | H (H shows the control value more than 50%) | L (L shows the control value of 50% or less) | H (H shows the control value more than 50%)
CCn1c(-c2c(F)cccc2F)c(-n2cc(F)cn2)cc(Br)c1=O [Compound 320] | H (H shows the control value more than 50%) | L (L shows the control value of 50% or less) | H (H shows the control value more than 50%)
CCc1ccccc1-c1c(-n2cc(C)cn2)cc(Br)c(=O)n1CC [Compound 321] | H (H shows the control value more than 50%) | L (L shows the control value of 50% or less) | L (L shows the control value of 50% or less)
CCc1ccccc1-c1c(-n2ncc(C)c2Cl)cc(Br)c(=O)n1CC [Compound 322] | L (L shows the control value of 50% or less) | L (L shows the control value of 50% or less) | L (L shows the control value of 50% or less)
O=c1ccc(-c2ccsc2Br)c(-c2c(F)cccc2F)n1CC(F)F [Compound 323] | H (H shows the control value more than 50%) | H (H shows the control value more than 50%) | H (H shows the control value more than 50%)
O=c1ccc(-c2cc(Br)sc2Br)c(-c2c(F)cccc2F)n1CC(F)F [Compound 324] | H (H shows the control value more than 50%) | L (L shows the control value of 50% or less) | L (L shows the control value of 50% or less)
O=c1c(Br)cc(-c2cc(Br)sc2Br)c(-c2c(F)cccc2F)n1CC(F)F [Compound 325] | L (L shows the control value of 50% or less) | L (L shows the control value of 50% or less) | L (L shows the control value of 50% or less)
CCn1c(-c2ccc(F)cc2Br)c(-n2cc(F)cn2)ccc1=O [Compound 326] | H (H shows the control value more than 50%) | L (L shows the control value of 50% or less) | H (H shows the control value more than 50%)
CCn1c(-c2ccc(F)cc2Cl)c(-n2cc(F)cn2)ccc1=O [Compound 327] | H (H shows the control value more than 50%) | L (L shows the control value of 50% or less) | H (H shows the control value more than 50%)
CCn1c(-c2ccc(F)cc2Cl)c(-n2cc(F)cn2)cc(Cl)c1=O [Compound 328] | H (H shows the control value more than 50%) | L (L shows the control value of 50% or less) | H (H shows the control value more than 50%)
CCn1c(-c2ccc(F)cc2Cl)c(-n2cc(F)cn2)cc(Br)c1=O [Compound 329] | H (H shows the control value more than 50%) | L (L shows the control value of 50% or less) | H (H shows the control value more than 50%)
CCn1c(-c2ccc(F)cc2Br)c(-n2cc(C)cn2)ccc1=O [Compound 330] | H (H shows the control value more than 50%) | L (L shows the control value of 50% or less) | H (H shows the control value more than 50%)
CCn1c(-c2ccc(F)cc2Br)c(-n2ncc(C)c2Cl)cc(Cl)c1=O [Compound 331] | H (H shows the control value more than 50%) | L (L shows the control value of 50% or less) | H (H shows the control value more than 50%)
CCn1c(-c2ccc(F)cc2Br)c(-n2cc(C)cn2)cc(Br)c1=O [Compound 332] | H (H shows the control value more than 50%) | L (L shows the control value of 50% or less) | H (H shows the control value more than 50%)
CCn1c(-c2ccc(F)cc2Br)c(-n2ncc(C)c2Cl)cc(Br)c1=O [Compound 333] | H (H shows the control value more than 50%) | L (L shows the control value of 50% or less) | H (H shows the control value more than 50%)
